# Assay results taken from PMC5700166.
# Only a part is listed here, and it is no random draw. The list includes weakly bound sequences.
# What was measured:
# Experiment in all cases: protein-binding microarray (PBM)
# Conditions in all cases: PBM: ~300 nM protein, 6 mM HEPES pH 7.8, 80 mM KCl, 0.5 mM EDTA, 0.5 mM EGTA, 6% glycerol, 35 ng/ul poly-dIdC, 1% milk, 1 h, room temperature; Ap Aiptasia and Nv Nematostella (sea anemones) / Co Capsaspora / Aq Amphimedon (sponge) / Dm Drosophila / Hu human; RHD is the Rel homology domain; high values mean tight binding; most listed sequences are background and not binding sites; double strand, one strand shown
# GST-Ap-NF-kB RHD = target: T1, GST-Ap-NF-kB RHD (UniProt A0A913YAJ5)
# T1 sequence: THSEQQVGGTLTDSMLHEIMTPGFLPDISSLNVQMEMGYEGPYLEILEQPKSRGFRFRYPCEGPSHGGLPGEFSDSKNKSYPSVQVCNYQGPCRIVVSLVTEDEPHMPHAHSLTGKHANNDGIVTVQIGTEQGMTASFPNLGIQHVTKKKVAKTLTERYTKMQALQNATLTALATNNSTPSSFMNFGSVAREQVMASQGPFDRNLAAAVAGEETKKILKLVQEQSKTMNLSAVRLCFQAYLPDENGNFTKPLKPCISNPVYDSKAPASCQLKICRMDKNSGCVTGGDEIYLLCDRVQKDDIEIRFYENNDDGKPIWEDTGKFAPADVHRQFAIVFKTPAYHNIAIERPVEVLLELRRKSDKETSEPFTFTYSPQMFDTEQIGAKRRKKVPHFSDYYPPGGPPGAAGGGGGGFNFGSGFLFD
# [1] = target: T2, GST-Nv-NF-kB (Cys allele) (UniProt E5G601)
# T2 sequence: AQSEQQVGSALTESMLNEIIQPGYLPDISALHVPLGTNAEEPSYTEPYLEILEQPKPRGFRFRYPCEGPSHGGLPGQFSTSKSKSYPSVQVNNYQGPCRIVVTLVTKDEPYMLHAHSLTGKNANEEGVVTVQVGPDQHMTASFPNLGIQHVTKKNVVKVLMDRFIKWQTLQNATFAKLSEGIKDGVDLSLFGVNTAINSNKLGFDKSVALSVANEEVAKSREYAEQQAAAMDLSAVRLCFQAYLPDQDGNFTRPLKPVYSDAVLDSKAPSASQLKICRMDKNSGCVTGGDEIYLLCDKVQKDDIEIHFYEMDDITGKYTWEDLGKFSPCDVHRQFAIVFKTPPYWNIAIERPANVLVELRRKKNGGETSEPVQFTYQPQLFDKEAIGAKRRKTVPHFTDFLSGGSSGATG
# GST-Co-NF-kB = target: T3, GST-Co-NF-kB (UniProt F1ARL5)
# T3 sequence: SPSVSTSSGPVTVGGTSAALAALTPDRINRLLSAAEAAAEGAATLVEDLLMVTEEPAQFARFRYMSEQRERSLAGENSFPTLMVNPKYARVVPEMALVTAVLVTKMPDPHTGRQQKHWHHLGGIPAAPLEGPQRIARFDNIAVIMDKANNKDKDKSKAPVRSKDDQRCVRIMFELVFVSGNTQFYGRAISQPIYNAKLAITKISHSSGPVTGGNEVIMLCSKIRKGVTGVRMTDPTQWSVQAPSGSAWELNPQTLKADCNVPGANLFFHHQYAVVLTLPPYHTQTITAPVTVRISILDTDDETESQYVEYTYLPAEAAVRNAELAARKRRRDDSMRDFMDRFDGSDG
# GST-Dm-Relish = target: T4, GST-Dm-Relish (UniProt Q94527)
# T4 sequence: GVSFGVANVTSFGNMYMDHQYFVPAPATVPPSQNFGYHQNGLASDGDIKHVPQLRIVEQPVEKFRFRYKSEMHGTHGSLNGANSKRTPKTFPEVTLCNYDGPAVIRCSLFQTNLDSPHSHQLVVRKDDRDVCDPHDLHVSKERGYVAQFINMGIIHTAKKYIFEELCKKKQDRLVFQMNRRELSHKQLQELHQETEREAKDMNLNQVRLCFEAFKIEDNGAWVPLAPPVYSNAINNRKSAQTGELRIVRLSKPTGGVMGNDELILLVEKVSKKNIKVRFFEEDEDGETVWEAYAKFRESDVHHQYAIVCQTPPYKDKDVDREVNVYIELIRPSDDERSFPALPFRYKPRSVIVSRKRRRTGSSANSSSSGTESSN
# GST-Aq-NF-kB = target: T5, GST-Aq-NF-kB (UniProt A9Y5G7)
# T5 sequence: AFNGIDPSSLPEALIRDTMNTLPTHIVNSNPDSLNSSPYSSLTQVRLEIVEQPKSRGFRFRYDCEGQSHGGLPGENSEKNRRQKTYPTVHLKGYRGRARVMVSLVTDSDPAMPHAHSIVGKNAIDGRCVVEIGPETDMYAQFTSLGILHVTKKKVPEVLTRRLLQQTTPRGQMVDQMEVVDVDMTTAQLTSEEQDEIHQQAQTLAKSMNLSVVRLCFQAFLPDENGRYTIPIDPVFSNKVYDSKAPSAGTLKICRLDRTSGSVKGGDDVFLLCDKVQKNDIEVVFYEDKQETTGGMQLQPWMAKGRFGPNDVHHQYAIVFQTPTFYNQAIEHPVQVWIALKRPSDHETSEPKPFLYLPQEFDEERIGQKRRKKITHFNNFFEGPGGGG
Sequence,binding signal (GST-Ap-NF-kB RHD),binding signal [1],binding signal (GST-Co-NF-kB),binding signal (GST-Dm-Relish),binding signal (GST-Aq-NF-kB)
CCGATTAACATCAACAAAGGTGATGATGTTAATCGGGTCTTGATTCGCTTGACGCTGCTG,0.0136 z-score,0.13 z-score,0.0773 z-score,-0.578 z-score,0.202 z-score
CCGATTAACATCAACACACTGCTTGATGTTAATCGGGTCTTGATTCGCTTGACGCTGCTG,-0.288 z-score,-0.524 z-score,-0.699 z-score,-0.295 z-score,-0.34 z-score
CCGATTAACATCAAAATTCCGTATGATGTTAATCGGGTCTTGATTCGCTTGACGCTGCTG,-0.399 z-score,-0.322 z-score,0.454 z-score,0.384 z-score,0.959 z-score
CCGATTAACATCAGCGCCTTACCTGATGTTAATCGGGTCTTGATTCGCTTGACGCTGCTG,0.241 z-score,-0.434 z-score,-0.273 z-score,-0.572 z-score,-0.2 z-score
CCGATTAACATCATGCACTAAAGTGATGTTAATCGGGTCTTGATTCGCTTGACGCTGCTG,-0.245 z-score,-0.955 z-score,0.366 z-score,-0.102 z-score,-0.553 z-score
CCGATTAACATCAAAATTCCGAATGATGTTAATCGGGTCTTGATTCGCTTGACGCTGCTG,-0.253 z-score,-0.0774 z-score,0.0689 z-score,0.352 z-score,0.621 z-score
CCGATTAACATCAGCTGGGCAGTTGATGTTAATCGGGTCTTGATTCGCTTGACGCTGCTG,-0.305 z-score,-0.721 z-score,-0.716 z-score,-0.745 z-score,-0.362 z-score
CCGATTAACATCAAAGTTTAGTCTGATGTTAATCGGGTCTTGATTCGCTTGACGCTGCTG,-0.239 z-score,-0.215 z-score,-0.952 z-score,-0.448 z-score,-0.513 z-score
CCGATTAACATCAGCACTATAGATGATGTTAATCGGGTCTTGATTCGCTTGACGCTGCTG,-0.375 z-score,-1.61 z-score,-0.722 z-score,-0.309 z-score,-0.446 z-score
CCGATTAACATCATGCCGGTATATGATGTTAATCGGGTCTTGATTCGCTTGACGCTGCTG,-0.452 z-score,-0.641 z-score,-0.882 z-score,-0.765 z-score,-0.315 z-score
CCGATTAACATCAGATTTATAACTGATGTTAATCGGGTCTTGATTCGCTTGACGCTGCTG,-0.76 z-score,-0.391 z-score,-0.638 z-score,-0.407 z-score,-0.573 z-score
CCGATTAACATCAAAAGCTTAGTTGATGTTAATCGGGTCTTGATTCGCTTGACGCTGCTG,-0.527 z-score,-0.839 z-score,-0.707 z-score,-0.688 z-score,-0.501 z-score
CCGATTAACATCATCGAGAGTGCTGATGTTAATCGGGTCTTGATTCGCTTGACGCTGCTG,-0.0834 z-score,0.019 z-score,-0.34 z-score,-0.881 z-score,-0.328 z-score
CCGATTAACATCAACACGACAAGTGATGTTAATCGGGTCTTGATTCGCTTGACGCTGCTG,-0.603 z-score,-0.00521 z-score,0.39 z-score,0.0405 z-score,-0.369 z-score
